# In PubChem BioAssay AID588855 (National Center for Advancing Translational Sciences (NCATS), 2011):
# Among all 410,000 compounds or so, about 5,000 (1.2%) were called active. This list was built around the results that the source calls inconclusive (neither active nor inactive); the mix of calls is not that of the screen. Calls come from the whole dose curve; as a rule, active = well fitted inhibition curve with a large enough effect; inconclusive = small, poorly fitted or top-dose-only effect; inactive = no such curve, though single readings can be large or run the other way. Potencies beside an inconclusive call are fits to weak or partial responses and may not hold up.
# Assay: qHTS for Inhibitors of TGF-b; note: nearly all actives have a fitted effect of over 65% in size
# Conditions: HepG2 CAGA-GFP TGF-b/SMAD3 reporter, GFP fluorescence, 18 h, TGF-beta stimulated, 500 pg/mL final; series mostly up to 46.1 µM; activity, negative = inhibition: at the top concentration
# Outline: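 Per well, imaged GFP fluorescence of HEPG2 CAGA-GFP cells gives the signal; cells get compound, then TGF-beta (500 pg/mL final), 18 h at 37 degrees C; %Activity versus -TGF-beta and +DMSO controls.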
# % is set by controls: 0 for no effect and ±100 for the full control effect; potency is the fitted concentration of half-maximal effect; tags give direction and shape of the fitted curve.
SMILES,Potency,"activity, negative = inhibition"
COc1cccc(N(C(=O)c2ccn[nH]2)C2(C(=O)Nc3c(C)cccc3C)CCCCC2)c1,"inconclusive: 35.5 µM [inhibitor, single point]",
CNC(=O)c1ccc2c(c1)N=C(C)c1cc(C)ccc1S2,"inconclusive: 35.5 µM [inhibitor, single point]",
Oc1ccccc1N1CCN(c2ncnc3scc(-c4ccccc4)c23)CC1,"inconclusive: 35.5 µM [inhibitor, single point]",
C/C(=N/NC(N)=S)c1ccc(Br)s1,"inconclusive: 10 µM [inhibitor, partial curve]",
COc1cc(C(=O)Nc2ccc(S(=O)(=O)NC(C)(C)C)cc2)cc(OC)c1OC,,inactive: 21.1%
CC1CCN(c2oc(-c3cccs3)nc2S(=O)(=O)c2ccc(Cl)cc2)CC1,"inconclusive: 25.1 µM [inhibitor, single point]",
O=C(NC1CCN(Cc2ccccc2)CC1)c1ccccc1OCc1ccccc1Cl,"inconclusive: 35.5 µM [inhibitor, single point]",
Cc1cc(C)c(C)c(OCCOCCNCc2ccccc2)c1,"inconclusive: 22.4 µM [inhibitor, single point]",
CCC(C)NC(=O)c1csc2c1CCCCC2 (centres undefined),,inactive: -3.2%
Cc1cccc(CCNC(=O)C2CCC(=O)N(Cc3ccc(Cl)cc3)C2)n1 (centres undefined),"inconclusive: 35.5 µM [inhibitor, single point]",
Cc1cc(C(=O)NC2CCCc3c2cnn3-c2cccc(C)c2C)no1 (centres undefined),"inconclusive: 12.6 µM [inhibitor, single point]",
O=C(CN1C(=O)NC(Cc2ccccc2)C1=O)Nc1ccc(F)c(F)c1F (centres undefined),,inactive: 3.57%
O=S(=O)(Nc1cccc2cccnc12)C1CC1,"inconclusive: 17.8 µM [inhibitor, single point]",
Cn1cc(CN2CCN(c3ccc(Cl)cn3)CC2)c(-c2ccccc2F)n1,"inconclusive: 12.6 µM [inhibitor, single point]",
COc1cc(Br)c(C2CC(=O)Nc3cc(OC)c(OC)c(OC)c32)cc1OC (centres undefined),,inactive: 0.246%
CC1CC(C)CN(c2nc(NCc3ccco3)nc(N)c2[N+](=O)[O-])C1 (centres undefined),,inactive: -10.8%
CCCOc1ccc(C(=O)N/N=C/c2c[nH]c3ccc(Br)cc23)cc1,"inconclusive: 15.8 µM [inhibitor, partial curve, poor fit]",
Cc1csc(NC(=O)CSc2nc3[nH]c(=O)cc(O)c3s2)n1,"inconclusive: 3.16 µM [inhibitor, single point]",
CCCC(=O)NC(c1ccc2c(c1)OCO2)c1cc(Cl)c2cccnc2c1O (centres undefined),"inconclusive: 2.51 µM [inhibitor, partial curve, poor fit]",
Cc1cc(C)c(S(=O)(=O)N2CCN(C(=O)CCn3nc(C)c(C)c3C)CC2)c(C)c1,,inactive: 10.3%
Nc1ccc(N=Nc2ccccc2)cc1[N+](=O)[O-],"inconclusive: 35.5 µM [inhibitor, single point]",
Cc1ccc(NC(=O)c2cc(S(=O)(=O)N3CCCCC3)ccc2N2CCOCC2)cc1S(=O)(=O)N(C)C,,inactive: -14.5%

SMILES,Potency,"activity, negative = inhibition"
COc1ccc(C(=S)N2CCN(C)CC2)cc1,,inactive: -1.54%
COc1ccc(CNC(=O)[C@@H]2CCCN2C(=O)[C@@H]2Cc3ccccc3CN2C(=O)OC(C)(C)C)cc1,active: 11.2 µM,
Cc1nc(N2CCN(Cc3ccc4c(c3)OCO4)CC2)c2oc3ccccc3c2n1,"inconclusive: 35.5 µM [inhibitor, single point]",
O=C(CC(SCCO)c1ccc([N+](=O)[O-])cc1)c1ccco1 (centres undefined),"inconclusive: 31.6 µM [inhibitor, single point]",
CC(NC(=O)c1ccc2nc(Cc3cccc(Cl)c3)oc2c1)c1ccncn1 (centres undefined),"inconclusive: 3.16 µM [inhibitor, single point]",
COc1ccc2[nH]c(C)c(CCNC(=S)Nc3cccc(C)c3C)c2c1,"inconclusive: 35.5 µM [inhibitor, single point]",
O=C(CCN1C(=O)C2C3C=CC(C3)C2C1=O)N1CCN(c2ccc([N+](=O)[O-])cc2)CC1 (centres undefined),"inconclusive: 35.5 µM [inhibitor, single point]",
CCN(C(=O)CN1C(=O)/C(=C/c2ccccc2F)SC1=S)C1CCS(=O)(=O)C1 (centres undefined),,inactive: 3.26%
O=C(Cn1c(=O)n(Cc2nc(-c3ccccc3)no2)c(=O)c2cc3c(cc21)OCO3)Nc1ccc(Cl)cc1,,inactive: 1.6%
Cc1cccc(NC(=O)c2cc(S(=O)(=O)c3ccccc3)ccc2Cl)c1,"inconclusive: 35.5 µM [inhibitor, single point]",
O=C(CCN1C(=O)/C(=C\c2ccccc2)SC1=S)NCCCN1CCOCC1,,inactive: -8.5%
CCCCOC(=O)Nc1ccc(C)c(Cl)c1,"inconclusive: 0.112 µM [inhibitor, full curve, poor fit]",
CC(C)CC1NC(=S)N(C2CCCCC2)C1=O (centres undefined),,inactive: -3.2%
COc1cnc(-c2ccccn2)nc1Sc1ccc(Cl)cc1,,inactive: 0.151%
O=C(c1ccc2c(c1)OCCO2)N1CCCC(CNS(=O)(=O)c2cccs2)C1 (centres undefined),,inactive: 1.92%
Cc1cc(C)c(C(=O)CC(=O)c2ccccc2Cl)c(O)c1,"inconclusive: 14.1 µM [inhibitor, partial curve, poor fit]",
COC(=O)c1sc(-c2ccc(C(C)(C)C)cc2)cc1NC(=O)CSCC(=O)O,"inconclusive: 22.4 µM [inhibitor, single point]",
CCc1ccc(NC(=O)CC2C(=O)OCCN2CC)cc1 (centres undefined),"inconclusive: 8.91 µM [inhibitor, partial curve, poor fit]",
CCOC(=O)c1ccc(N2C(=O)c3n[nH]c(-c4cccs4)c3C2c2cccc(F)c2)cc1 (centres undefined),"inconclusive: 2.51 µM [inhibitor, partial curve, poor fit]",
CCCCCCCCCCS(=O)(=O)N/N=C/c1ccccc1OC,"inconclusive: 14.1 µM [inhibitor, partial curve, poor fit]",
CCCn1c(N)c(C(=O)CSc2nc3ccccc3s2)c(=O)[nH]c1=O,"inconclusive: 0.562 µM [inhibitor, full curve, poor fit]",
Cc1ccc(C)c(CN2C(=O)c3ccccc3S(=O)c3ccc(C(=O)NCc4ccccc4)cc32)c1 (centres undefined),,inactive: 8.35%
